PubChem BioAssay AID504832 (National Center for Advancing Translational Sciences (NCATS), 2011)
The whole screen tested about 310,000 compounds, of which about 18,000 (5.8%) were called active. Inconclusive means that the source gave no clear call. Such entries were picked first, then a sample of the others. The call rests on the fitted dose curve; in most records, active means well fitted inhibition curve with a large enough effect; inconclusive means small, poorly fitted or top-dose-only effect, or another doubt; inactive means no such curve, though single readings can be large or run the other way. Potencies of inconclusive entries are left out as doubtful fits.

Test: Primary qHTS for delayed death inhibitors of the malarial parasite plastid, 48 hour incubation
Settings: P. falciparum luciferase growth in erythrocytes; series mostly up to 28.7 µM; activity change, negative = inhibition: at the top concentration
In short: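 Read-out is firefly luciferase luminescence from an integrated reporter in P. falciparum, so falling signal marks reduced parasite growth. Infected erythrocytes were at 2% hematocrit and 0.1% parasitemia (final) in Albumax-supplemented RPMI 1640.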
On the % scale 0 is the no-effect control and ±100 the full control effect; potency means the concentration at half of the fitted maximal effect; tags describe the fitted curve by direction and shape.

Structure (SMILES)	Potency	activity change, negative = inhibition
COc1ccc(C(=O)Nc2ccc(N3CCCCCC3)cc2)cc1S(=O)(=O)N1CCOCC1	active: 11.7 µM	–
Cc1cc2nnc(SCC(=O)OC(C)C)n2c2ccccc12	inconclusive [inhibitor, single point]	–
O=C1CN(C(=O)COc2c(Cl)cccc2Cl)c2ccccc2N1	inconclusive [inhibitor, single point]	–
S=C(Nc1ccc(Cl)cc1Cl)NC1CCN(Cc2ccccc2)CC1	inconclusive [inhibitor, single point]	–
Cn1cnc([N+](=O)[O-])c1Sc1ccc(C(C)(C)C)cc1	inconclusive [inhibitor, partial curve, poor fit]	–
CCC(C)(C)n1nnnc1C(c1cc2cc3c(cc2[nH]c1=O)OCO3)N1CCCCC1 (configuration not stated)	inconclusive [inhibitor, single point]	–
FC(F)Oc1ccc(-n2cc(-c3ccccc3)[n+]3c2CCCCC3)cc1	active: 1.17 µM	–
COc1cccc(CNC(=O)C2CCCN(S(=O)(=O)c3ccc4c(c3)C(C)(C)C(=O)N4C)C2)c1 (configuration not stated)	inconclusive [inhibitor, partial curve]	–
CC(C)(C)NC(=S)NC(=O)C12CCC3CC(CC(C3)C1)C2	inconclusive [inhibitor, single point]	–
CCN(CC(=O)Nc1ccc2c(c1)OCCO2)C(=O)/C=C/c1ccc(OC)c(OC)c1	inconclusive [inhibitor, single point]	–
Cn1c(N)c(Sc2ccccc2[N+](=O)[O-])c(=O)n(C)c1=O	–	inactive: 17.8%
CC(C)(C)C1c2[nH]c3ccccc3c2CCN1CCCn1cccn1 (configuration not stated)	inconclusive [inhibitor, single point]	–
C=CCc1cccc(Cl)c1OCCCNC1CCCC1	inconclusive [inhibitor, single point]	–
O=C(CSc1nnc(-c2cccs2)o1)NCC1CN(Cc2ccccc2)CCO1 (configuration not stated)	inconclusive [inhibitor, single point]	–
Cc1ccc(OCCCC(=O)N(C)CC(=O)Nc2ccccc2Cl)cc1	inconclusive [inhibitor, single point]	–
Cc1ccc(NC(=O)c2ccc(S(=O)(=O)NCC3CCCO3)cc2)cc1C (configuration not stated)	inconclusive [inhibitor, single point]	–
COc1ccc(N2CCN(CCC(O)c3ccc4ccccc4c3)CC2)cc1 (configuration not stated)	active: 3.29 µM	–
CC(=O)c1ccc(NC(=O)CSc2nnc3ccc(-c4ccccn4)nn23)cc1	–	inactive: 49.5%
Cc1[nH]c2ccccc2c1NC(=O)CN1CCN(c2cccc(C(F)(F)F)c2)CC1	inconclusive [inhibitor, single point]	–
CC(C)c1ccccc1NC(=O)COC(=O)c1cc([N+](=O)[O-])ccc1N1CCOCC1	inconclusive [inhibitor, partial curve]	–
COc1ccc(C)cc1N1C(=N)/C(=C2/Nc3ccccc3S2)C(c2ccccc2)C1=O (configuration not stated)	active: 13.1 µM	–
NC(=S)N/N=C/c1c(O)c(Br)cc2oc3c(c12)CCCC3	active: 3.29 µM	–
CCOc1ccccc1/C=N/Nc1nc2c(N)ncnc2n1[C@H]1O[C@@H](CO)[C@H](O)[C@@H]1O	inconclusive [inhibitor, partial curve, poor fit]	–

Structure (SMILES)	Potency	activity change, negative = inhibition
COc1cc(/C=C/C(=O)NCCn2c(C)cc3ccccc32)cc(OC)c1OC	inconclusive [inhibitor, single point]	–
CSc1nc(SCCO)c2sc3nc(-c4ccco4)c4c(c3c2n1)CC(C)(C)OC4	inconclusive [inhibitor, partial curve]	–
CCN(CC)S(=O)(=O)c1ccc(NC2c3ncccc3C(=O)N2Cc2ccccc2)cc1 (configuration not stated)	inconclusive [inhibitor, full curve, poor fit]	–
CC(=O)Nc1cccc(N/C(N)=N/c2nc(C)cc(C)n2)c1	inconclusive [inhibitor, partial curve]	–
CN1/C(=C\C(=O)COC(=O)c2nccnc2N)C(C)(C)c2ccccc21	inconclusive [inhibitor, single point]	–
CCOC(=O)c1c(CN2CCOCC2)n(-c2ccccc2)c2cc(Br)c(OC)cc12	inconclusive [inhibitor, single point]	–
O=C(CCc1nnc(CCC2CCCCC2)o1)NCCc1ccccn1	–	inactive: 1.01%
C[C@]12CCC3c4ccc(OCC(=O)O)cc4CCC3C1CCC2=O (some centres not stated)	inconclusive [inhibitor, single point]	–
CN(Cc1cccc2ccccc12)C(=O)c1cc(COc2c(F)cccc2F)on1	–	inactive: 6.45%
COc1cccc(NC(=O)CSc2c3c(nc4ccccc24)CCCC3)c1	inconclusive [inhibitor, single point]	–
Cc1ccccc1NC(=S)NC(C)C(c1ccccc1)N1CCN(C)CC1 (configuration not stated)	inconclusive [inhibitor, full curve, poor fit]	–
Cc1cc([N+](=O)[O-])cnc1NC(C)c1ccccc1 (configuration not stated)	–	inactive: -18.9%
CCS(=O)(=O)n1nc(-c2ccc(Cl)cc2)nc1N	–	inactive: 32.9%
Cc1ccc(-c2nnc3c4ccccc4c(C)nn23)cc1S(=O)(=O)N1CCN(CCO)CC1	active: 0.415 µM	–
COc1ccc(OC)c(NC(=O)Nc2cnccn2)c1	–	inactive: 55.9%
CCCn1nc(C(=O)Nc2nc3ccccc3[nH]2)c2ccccc2c1=O	active: 14.7 µM	–
CCOC(=O)SC1=N/C(=C\c2ccc(N(C)C)cc2)C(=O)S1	–	inactive: 20.6%
COc1ccc(CN2CSC(=S)N(Cc3ccc(OC)cc3)C2)cc1	active: 11.7 µM	–
CCOC(=O)c1cccc(NC(=O)CN(c2ccc(C)cc2)S(=O)(=O)c2c(C)noc2C)c1	active: 8.28 µM	–
CCCSc1nc2c(c(=O)n1-c1ccc(OCC)cc1)SCC2	inconclusive [inhibitor, partial curve, poor fit]	–
COC(=O)C1=C(C)Nc2c(c(=O)n(C)c(=O)n2C)C1c1ccncc1 (configuration not stated)	–	inactive: 7.98%
Cc1c(C=O)c2ccccc2n1CC(=O)NC(C)c1ccccc1 (configuration not stated)	inconclusive [inhibitor, single point]	–
CCC1(C)Cc2c(sc3c2c2ncnn2c2nnc(SCC(=O)NCc4ccco4)n32)CO1 (configuration not stated)	inconclusive [inhibitor, partial curve, poor fit]	–

Structure (SMILES)	Potency	activity change, negative = inhibition
COc1cccc(NC(=S)N(Cc2ccccn2)Cc2ccccc2Cl)c1	inconclusive [inhibitor, single point]	–
Cc1ccc(C(=O)NC(C)c2ccccc2)cc1S(=O)(=O)N1CCOCC1 (configuration not stated)	inconclusive [inhibitor, partial curve, poor fit]	–
COc1ccc(C2/C(=C(\O)c3ccc4c(c3)OCCO4)C(=O)C(=O)N2c2nc(C)c(C(C)=O)s2)cc1 (configuration not stated)	–	inactive: -4.69%
Cc1cccc(NC(=S)N2CCN(S(=O)(=O)c3ccc(F)cc3)CC2)c1	active: 2.08 µM	–
CCCCN(C(=O)c1cccc(S(=O)(=O)N2CCN(Cc3ccccc3)CC2)c1)c1ccccc1	inconclusive [inhibitor, single point]	–
CSCCC(NC(=O)COc1ccccc1)C(=O)N1CC(C)CC(C)C1 (configuration not stated)	inconclusive [inhibitor, single point]	–
CC(=O)n1cc([C@@H]2C=C(C(=O)N3CCOCC3)O[C@H](OCc3ccc(CO)cc3)C2)c2ccccc21	inconclusive [inhibitor, partial curve, poor fit]	–
CS(=O)(=O)/C(C#N)=C/c1cccn1S(=O)(=O)c1ccccc1	–	inactive: 7.4%
Cc1nc(N2CCN(c3ccccn3)CC2)c2c(C)c(C(=O)Nc3ccc(F)cc3F)sc2n1	active: 8.28 µM	–
CCN1CCN(c2ccc(NC(=O)c3ccc(Cl)c(S(=O)(=O)N4CCCC4)c3)cc2)CC1	active: 10.4 µM	–
COc1ccc(OC(=O)CN2C(=O)C3C4CCC(C4)C3C2=O)cc1 (configuration not stated)	–	inactive: 5.99%
COc1ccc(/C=C2\SC(=S)N(NC(=O)c3ccncc3)C2=O)cc1OC	–	inactive: 11.4%
C#CCOCCOCCOCCNc1nc(N2CCN(C(=O)CCCCCCCCCCNC(=O)[C@H](CCCCN)n3cc(CCO)nn3)CC2)nc(N2CCN(C(=O)CCCCCCCCCCNC(=O)[C@H](CCCN=C(N)N)n3cc(C[C@@H](C)CC)nn3)CC2)n1	active: 11.7 µM	–
O=C1CCCCCN1C(=O)c1cccc(C(=O)N2CCCCCC2=O)c1	–	inactive: 28.9%
CCOc1ccc(N(C(=O)/C=C/C(=O)Nc2cc(C)on2)C(C(=O)NC2CCCC2)c2ccccc2C)cc1 (configuration not stated)	inconclusive [inhibitor, partial curve, poor fit]	–
CC1(C)CC(=O)C2=C(C1)c1c(ccc3ncccc13)NC2c1cccs1 (configuration not stated)	inconclusive [inhibitor, single point]	–
CCO[C@@H]1OC(C(N)=O)=C[C@H](c2ccc(C(F)(F)F)cc2)[C@H]1CCCO	inconclusive [inhibitor, single point]	–
CO/N=C(\Cn1ncc(N2CCCC2)c(Cl)c1=O)c1ccc(Cl)cc1	inconclusive [inhibitor, single point]	–
CCN(CC(=O)Nc1ccc(NC(C)=O)cc1)C(=O)C(c1ccccc1)c1ccccc1	inconclusive [inhibitor, single point]	–
Cc1ccc(C(=O)OCC(=O)c2ccc(CC(=O)N3CCOCC3)s2)cc1C	inconclusive [inhibitor, single point]	–
C=CCNC(=O)/C(=C\C=C\c1ccccc1)NC(=O)c1ccccc1Cl	–	inactive: 14.2%
